# Test results reported in the supplement of paper PMC3334620.
# The full ranking holds about 33,000 sequences; the median of “E-score (-0.5 to 0.5)” is about -0.012, and the highest 2% start at about 0.29. The list shows a part of the results.
# Biological target: T1, Ybr033w (UniProt P38073)
# T1 sequence: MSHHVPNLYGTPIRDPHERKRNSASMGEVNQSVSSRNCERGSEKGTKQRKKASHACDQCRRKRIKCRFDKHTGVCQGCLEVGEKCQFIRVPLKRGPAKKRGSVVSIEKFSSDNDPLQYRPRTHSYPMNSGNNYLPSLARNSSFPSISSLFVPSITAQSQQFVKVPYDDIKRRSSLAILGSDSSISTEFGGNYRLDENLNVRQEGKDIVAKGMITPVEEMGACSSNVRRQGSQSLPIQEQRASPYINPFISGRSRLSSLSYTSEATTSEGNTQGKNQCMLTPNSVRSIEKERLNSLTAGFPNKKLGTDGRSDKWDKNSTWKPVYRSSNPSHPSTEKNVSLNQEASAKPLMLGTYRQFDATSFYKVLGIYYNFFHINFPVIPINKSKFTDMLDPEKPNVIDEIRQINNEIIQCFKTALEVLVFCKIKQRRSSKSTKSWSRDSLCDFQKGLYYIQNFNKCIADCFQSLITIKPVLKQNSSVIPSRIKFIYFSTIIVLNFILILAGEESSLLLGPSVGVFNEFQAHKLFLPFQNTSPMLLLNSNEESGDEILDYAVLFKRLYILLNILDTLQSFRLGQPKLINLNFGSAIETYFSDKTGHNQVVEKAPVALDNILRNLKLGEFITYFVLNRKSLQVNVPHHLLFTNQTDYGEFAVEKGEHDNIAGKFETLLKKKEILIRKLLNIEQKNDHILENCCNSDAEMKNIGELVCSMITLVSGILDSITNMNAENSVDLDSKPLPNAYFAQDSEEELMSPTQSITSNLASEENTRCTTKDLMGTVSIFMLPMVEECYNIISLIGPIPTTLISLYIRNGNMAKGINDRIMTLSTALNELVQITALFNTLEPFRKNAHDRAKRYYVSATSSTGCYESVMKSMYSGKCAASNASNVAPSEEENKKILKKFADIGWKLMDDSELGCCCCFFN
# Experiment: PBM E-score (8-mer binding enrichment) (E-score (-0.5 to 0.5)); higher = stronger / more preferred TF binding; most listed sequences are background and not binding sites
# Conditions: protein concentration: 200 nM; construct: GST-full length
# Summary of the method: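 Masliner-normalised scans of fluorescent anti-GST signal were the basis for scoring. That signal came from GST-tagged yeast transcription factors applied at about 100-200 nM to double-stranded universal all-10-mer Agilent arrays on fresh or once-stripped slides. Each ungapped eight-base word, pooled with its reverse complement, received an E-score from the Universal PBM Analysis Suite.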
row,Sequence,PBM E-score
1,CCTCGTGC,-0.123
2,ACTCATAG,0.0419
3,GCTTAGCA,-0.00267
4,CAAGCGAC,-0.0723
5,CCTCGGAA,0.209
6,GCACTAGA,0.102
7,ATCAGAGC,0.103
8,CTAGCCCC,-0.203
9,AACGATAG,0.0746
10,ATACGTTA,0.0904
11,TCAACACA,0.164
12,AGTCCAAT,0.0395
13,CTCAATAA,0.12
14,CTCCTCAC,-0.054
15,GTAGTCCA,-0.0115
16,TACCGTAA,-0.0237
17,GCGCGGCA,-0.0206
18,AGGGCACG,-0.185
19,AAAGGGTC,-0.136
20,GCTATCGA,-0.0604
21,AATCGTTC,0.0164
22,ATCTGAAG,0.0132

row,Sequence,PBM E-score
1,AAGTACAG,-0.0133
2,AGTTGATG,0.0527
3,CCTGGGTC,-0.289
4,CGCAGCAA,-0.0433
5,AAATTGCT,0.12
6,ATCCCAAG,-0.014
7,GGGCGCTA,-0.321
8,ACCCACAC,-0.135
9,TGTCTAAA,0.0946
10,ATCTTATC,0.117
11,CGTCCAAG,-0.11
12,GAGGGCGC,-0.214
13,CATAGATG,-0.107
14,GGAGAGCA,-0.225
15,GACGCAGA,-0.127
16,GGAAGGAC,-0.15
17,GAGTTAAA,0.0599
18,GGGACTAC,-0.131
19,CTGATTAA,0.22
20,CTTTTCAC,0.119
21,AATATGCC,0.0284
22,CTTGGTAC,0.158

row,Sequence,PBM E-score
1,CAGTAATA,0.317
2,CGAGCGGA,-0.0451
3,CAATGCAC,-0.0535
4,ACGGGCAG,-0.177
5,CCACAGTA,0.101
6,GAGATTAA,0.182
7,ATTTGTTA,0.185
8,AGAGGCTC,-0.264
9,CATTAATG,0.23
10,ATAATTGG,0.157
11,ATATGAAA,0.284
12,AATATAGT,0.271
13,CTGCAGTC,-0.347
14,TCCGACCA,-0.0213
15,TATCAGAA,0.178
16,ATGAGTTC,-0.077
17,AGACTATG,-0.0137
18,ATAACCGG,-0.215
19,GTATTATA,0.275
20,AAAAAAAT,0.248
21,GAAAACGA,-0.0206
22,CTCAGAGC,-0.191

row,Sequence,PBM E-score
1,TGGTAACA,0.0318
2,AGAGTAGC,-0.106
3,AAATTACC,0.164
4,GAGAAAAC,0.111
5,TTAAATAA,0.264
6,ACAAGGCG,-0.0775
7,TCGCGCAA,0.086
8,ATCCGTAA,0.131
9,CGTGGAGC,-0.215
10,CAGGAATG,-0.00908
11,CGCGCCTA,-0.123
12,GAGCAGAA,-0.142
13,GGATAGGA,-0.0374
14,ACTTGGAT,0.232
15,TGAGTAAA,0.172
16,ACCCGCGA,-0.0162
17,AGATGTCG,-0.001
18,AACTCGGG,-0.185
19,CCTAAGAC,-0.24
20,AGGCGGCA,-0.191
